Laboratory results from US10377789B2, “Oligonucleotide and artificial nucleoside having guanidine bridge” (OSAKA UNIVERSITY, priority 2012, dated 2019).

Key:
Format in all cases: binding
[1] = system: RNA 10 mers of poly A 5′-(AAAAAAAAAA)-3′; settings: target 5′-(AAAAAAAAAA)-3′; 200 mM KCl; vs native Compound 33
[2] = system: DNA 10 mers of poly A 5′-(AAAAAAAAAA)-3′; settings: target 5′-(AAAAAAAAAA)-3′; 200 mM KCl; vs native Compound 33
[3] = system: RNA target strands (10 mers of poly A and mismatch strands); settings: target 5′-(AAAAAAAAAA)-3′; 100 mM NaCl; vs native Compound 33
[4] = system: DNA target strands (10 mers of poly A and mismatch strands); settings: target 5′-(AAAAAAAAAA)-3′; 100 mM NaCl; vs native Compound 33

| Substance | ΔTm/Unit modification, RNA [1] | ΔTm/Unit modification, DNA [2] | ΔTm/Unit modification, RNA [3] | ΔTm/Unit modification, DNA [4] |
| --- | --- | --- | --- | --- |
| 5′-d(TTTTTTTTTT)-3′ [Compound 44] (TTTTNTTTTT; sugars from the 5' end d4 l1 d5, backbone and the base at N not given here) [oligonucleotide containing LNA-T, manufactured by Gene Design Inc] | (+6.0) ° C. | (+0.0) ° C. | – | – |
| 5′-d(TTTTtTTTTT)-3′ (TTTTNTTTTT; guanidine-bridged nucleic acid; Compound 29; Guanidine-Bridged Nucleic Acid) [t: guanidine-bridged nucleic acid, produced using Compound 28] | (+5.0) ° C. | (+5.0) ° C. | (+5.0) ° C. | (+4.0) ° C. |
| 5′-d(TTTTtTtTTT)-3′ [Compound 30] | (+5.5) ° C. | (+8.5) ° C. | (+5.5) ° C. | (+8.0) ° C. |
| 5′-d(TTTtttTTTT)-3′ [Compound 42] | (+7.3) ° C. | (+10.0) ° C. | – | – |
| 5′-d(TTtTtTtTTT)-3′ [Compound 31] | (+7.3) ° C. | (+10.7) ° C. | (+7.0) ° C. | (+10.0) ° C. |
| 5′-d(tTtTtTtTtT)-3′ [Compound 43] | (+8.8) ° C. | (+10.8) ° C. | – | – |

l = locked nucleic acid (LNA); d = 2'-deoxy (DNA)
